Reference: article PMC12040169 (PLOS Biology, 2025)
The list shows a part of the results.

The molecules below were run on T1, C. trachomatis L2/434/Bu expressing GFP (CTL2-GFP). Conditions: total inclusion area; 28.5 h, 10 µM; inhibitor.
T1 construct: L2/434/Bu GFP intracellular growth in HeLa cells
Set-up: species or system HeLa; C. trachomatis total inclusion area by high-content imaging, normalised to DMSO
Outline: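 Post-fluorescence-read fixation, DNA staining with Hoechst and high-content imaging; GFP inclusion area and number per well, and nuclei counts, used as proxies for bacterial growth and host viability.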

Row | SMILES | % of control remaining
1 | CN(C)CCN(C)c1cncc(-c2ccc3ccccc3c2)n1 [CBK037146] | 103.011
2 | CCN(CC)CCNC(=O)c1cc(=O)c2ccccc2o1 [CBK010691] | 98.438
3 | CNC(=O)C1(Cc2ccccc2-c2ccccc2)CCN(C(=O)CCC2CCCC2)CC1 [CBK285696] | 114.346
4 | COc1ccc(O)c(C(=O)c2cnn(C(=O)c3ccc(C)cc3)c2)c1 [CBK297546] | 106.171
5 | Cc1ccc(S(=O)(=O)NC2CCC(C(=O)O)CC2)cc1 (stereo not shown) [CBK286929] | 98.1376
6 | Cc1cc(C)n(CCC(=O)N2CCCCC2C(=O)O)n1 (stereo not shown) [CBK304678] | 43.2034
7 | CC1=C[C@@H](CNS(=O)(=O)c2ccccc2)[C@H](C(C)C)C[C@H]1CC(=O)N1CCCC1 [CBK289054] | 81.4683
8 | CCN1CCN(C(=O)c2cccn2C)CC1 [CBK200248] | 90.0641
9 | O=C(O)c1cc(NC(=O)C2CC2)cc(C(=O)O)c1 [CBK268564] | 102.129
10 | O=C(CCC(=O)Nc1ccccc1)N/N=C/c1ccco1 [CBK261968] | 103.129
11 | O=c1nc(-c2ccco2)oc2ccccc12 [CBK152421] | 66.2033
12 | O=C(CC1(O)C(=O)N(Cc2ccc3c(c2)OCO3)c2ccccc21)c1cccnc1 (stereo not shown) [CBK269633] | 77.9589
13 | CN1CCN(C(=O)c2ccccc2NC(=O)NC2CCCCC2)CC1 [CBK269771] | 101.785
14 | O=S(=O)(Nc1cccc(C(F)(F)F)c1)c1ccc(OC(F)(F)F)cc1 [CBK043554] | 70.2781
15 | C=CCn1c(S)nnc1CCSCc1ccccc1 [CBK268849] | 96.0722
16 | CC(C)NC(=O)N1Cc2nc[nH]c2C[C@H]1C(=O)NCc1ccco1 [CBK288974] | 96.558
17 | CN(C)c1cccc(C(=O)Nc2nc3ccc(S(N)(=O)=O)cc3s2)c1 [CBK287602] | 89.4278
18 | Cc1cccnc1C(c1ccc(F)cc1)N(C)C(=O)C1CCN(CCc2ccc(Br)cc2)CC1 (stereo not shown) [CBK148397] | 75.1138
19 | COc1ccc(NC(=O)c2cnc(-c3cccc(C)c3)c(-c3ccco3)c2)cc1 [CBK037491] | 64.2756
20 | CCc1c(C(=O)NCc2cc(C3CC3)[nH]n2)[nH]c2ccc(F)cc12 [CBK282501] | 103.692

Row | SMILES | % of control remaining
21 | Cc1cccc(-c2ccc(CC3(C(N)=O)CCN(C(=O)c4ccccc4)CC3)cc2)c1 [CBK285778] | 84.8797
22 | COc1ccc([C@H]2CN(C(=O)c3ccccc3)[C@@H]3CCN(Cc4ccsc4)C[C@H]23)cc1 [CBK285585] | 80.5027
23 | CC1CCN(S(=O)(=O)c2ccc(NC(=O)c3cccc(NC(=O)C(C)C)c3)cc2)CC1 [CBK265653] | 91.3816
24 | COc1ccc(C2C(C(=O)O)c3ccccc3C(=O)N2C)cc1 (stereo not shown) [CBK286847] | 106.973
25 | Cn1ncc2c1C(=O)NC1c3ccccc3C(=O)N21 (stereo not shown) [CBK113668] | 104.531
26 | COc1ccc(-n2c(SCC(=O)Nc3cccc(C(C)=O)c3)nc3sc(C)c(C)c3c2=O)cc1 [CBK091806] | 93.3868
27 | Cc1cccc(C(=O)NCc2nnc(SCC(=O)N3CCOCC3)n2C)c1 [CBK269723] | 100.522
28 | Cc1cc(C(=O)N2CCCCCC2c2c(Cl)cnn2C)on1 (stereo not shown) [CBK284916] | 93.4415
29 | CCCC(CCC)C(=O)Nc1ccc(NC(=O)c2ccco2)c(C)c1 [CBK058263] | 73.2923
30 | Nc1ccc(C(=O)Nc2nc3ccccc3s2)cc1 [CBK287608] | 75.0096
31 | CCCC(=O)N1CCCC(c2nnc(-c3cccs3)o2)C1 (stereo not shown) [CBK283057] | 99.9528
32 | O=C(Nc1nnc(-c2ccc3c(c2)OCCO3)o1)c1ccc2c(c1)OCCO2 [CBK287403] | 111.627
33 | Cc1cc2oc(=O)cc(C)c2cc1NC(=O)c1ccccc1C(=O)O [CBK286572] | 99.9439
34 | OC(CSc1ccc(F)cc1)CN1CCN(c2ccc(C(F)(F)F)cn2)CC1 (stereo not shown) [CBK074688] | 97.8275
35 | COc1ccc(C(C)C)cc1-c1ccnc2[nH]c(=O)ccc12 [CBK073735] | 101.888
36 | Cc1cc(COc2nccnc2OC2CCN(Cc3ccc(Cl)cc3)CC2)no1 [CBK082949T] | 100.813
37 | NC(=O)c1cc(Cc2ccccc2)sc1NC(=O)c1cccnc1 [CBK268168] | 96.6337
38 | CC(C)Oc1cc(NC(=O)CS(=O)(=O)CC(=O)N(C)C)c(Cl)cc1Cl [CBK018112] | 102.056
39 | O=C(CSc1nnc(-c2cc(Br)ccc2O)n1-c1ccccc1)N1CCc2ccccc21 [CBK268346] | 113.419
40 | CCN(CC)CCOC(=O)NS(=O)(=O)c1ccc(Cl)cc1 [CBK288510] | 104.452
